# Source: the RNAGym collection of RNA variant scans (doi:10.7554/elife.90254)
# The source gives no read counts; variants with many changes may rest on few reads.
# B1: OR4K15 (parent)
# chain: GUUAACGGUCAUAGGCCAUGGAAACUAGGAGCACCAUUUCGCUGCCAGUGAAGAAAUGAACAAAGAAAAUCUGGGCCAGGCAGGCAUCAAAAGAAAUAGUCUUGCGCUCAACCAGAAAGUCUGUAAUCAUUUUAAGGGUA
# Variants of: B1
# Assay: self-cleavage, relative activity (ratio to wild type); higher = more cleavage; in vitro, sequencing; the parent is a self-cleaving ribozyme
row,Variant,self-cleavage
1,A5U G7A U9C U38C A129G U131A,0.93
2,A68U A92G A116G,0.56
3,U39A U43A A78U A91U A116G,0.14
4,U37A U43C A66G,1.18
5,U9C G31A U100A,1.62
6,U2C U26C A91U,1.06
7,A62G U100C U124C U132C,1.95
8,A23G A30G A78U U102C U103G,0.1
9,A30G U72C U108C,0.03
10,A51U A63G U108C,0.02
11,U9C A47G A117G A129G,1.78
12,G44A A51G A98G U108G,0.01
13,A82U A92G U97C A110C U139C,0.02
14,U39A A52G A55U U70C A89G U108A A118G,0.01
15,U39A A59G U102C U103C U122C,0.22
16,U2C U9C U72C U100A A110G,0.08
17,U37G U38G A55G A86U A89G,0.85
18,A18G A33G A82G U122G,0.56
19,A55G A62G A82C A91G U131G,0
20,A5G C34A A62U,1.55
21,A22U A36G U43C A66G A111G,0.11
22,A36G U37G U87A A91G U100A U124C,0.15
23,U38C U102C C105U U122C,0.46
24,A64G A86U A114G C121A U130A U131C,0.82

row,Variant,self-cleavage
1,A11G G115U U130C,0.05
2,U19C G73A A92G U108C,0.02
3,A4U G41U A78U U100C U124C A125G,0.84
4,A33G G83A A96G,1.43
5,A63U A64C A98G,0.18
6,A67G A114G A126G,0.3
7,A22G A52G A96U,0.82
8,U2C A60G A63G U130A,0.54
9,A125G A126U A129C,0.8
10,A92G A117G U127C,1.08
11,A5U A23G A95G U122G,1.32
12,U26G U70C A111G,0.05
13,A11C A55U A67G A89G U120C A126G,0.23
14,A23G A30G U49C A52G U57C U70C,0.37
15,A24G U39C A63G U87C U120A U124C U131C A135G,0.65
16,A51G A110G U132C,0.13
17,A24G A67G U108C,0.04
18,A11G A33G A52G A82G,0.32
19,A47G A67G A90U,1.48
20,G41A A60G A91U U127A,1.99
21,A24G A59C A78G A111C U130A,0.01
22,U37C U72A A92G,0.4
23,U9C A52G A111G,0.03
24,A90G U127C A135C,1.01

row,Variant,self-cleavage
1,A11U A51G U100C U108C U130C,0
2,A33U A47G U132A,1.02
3,U57C C105U U122C U130C,0.03
4,A51G A86G U87C U102C,1.33
5,U49C A129G U131C,1.29
6,A5G U133C U139A,0.57
7,U9C G44A U49C A64G A116C A129G,0.04
8,A30U A95G G106A,0
9,A60G A67G G74U A86G,0.04
10,A62G A95G U120A,1.96
11,A5G C6U A64G A82G A91G,0.13
12,U87C A91G A96C,0.36
13,G58U A67G A86G U87C,0.22
14,C16U U26C U131C,2.34
15,U70A U100C U120C,2.1
16,A36G G48A U87A U124A,1.15
17,U9C U19A A30G U120G A125G U130G,0.88
18,U39G U72G A82G C112U,0.02
19,U2A A23G A111C A114G,0.01
20,U3C C71A G93A A110U U139C A140G,0.77
21,U37C C61U A67G A114G,0.18
22,U9C A30C A135G,1.55
23,A60U A64G U108C,0.02
24,U19C A89U U97C,0.98

row,Variant,self-cleavage
1,U39C U43C A52U A55U A69G A110G,0.21
2,G8A U12A U26C A114G,0.67
3,A5G U37C A135G,0.73
4,A60G A78U A118G,0.06
5,A27G A89U U122C,1.34
6,U19A A54U A62G A92G A96G A111G,0.04
7,A67G A96U A116G,0.49
8,U38A A64G A90G U122A,0.19
9,A60U G75A G138A,0.09
10,A5U A54G U57G A67G U108C,0.07
11,U19C A67G A89G,1.06
12,U9A G31A A54G A67G,1.26
13,U70C A78G U127C A140G,0.11
14,A114G U120C A126G U132C,0.03
15,U9C U19C A54G A62G,1.6
16,U38C A68G A98U A116G,1.85
17,A62G A95G C105U U120C,0.02
18,A59G C85U U87A U122C,0.65
19,A33G U57A U97C,0.66
20,A56G A69G A95G,1.17
21,A11G U87C A117U,0.79
22,A33G A36G U97C,0.76
23,A18G A59G A111G U132C,0.03
24,A54U U87G A94G U102C,0.7

row,Variant,self-cleavage
1,A52U U102C U120C A134U,2.16
2,A11G U19C A36C A94U A114U,0.06
3,A69G A78G A94G,0.24
4,A24C A33G A47G U87C A92G G136A,0.45
5,U43A G106A U132C,0.03
6,A56G A94G U131C,1.04
7,A67G A68G C105U U120C U130A,0.04
8,A54G A67G U108C A110U,0
9,U108C A118G U124A,0
10,A4G A52G A54U U100C A110G,0.36
11,U43C A59G A92G C121A U130C,1.94
12,C6U U39C A117G A126G,1.37
13,A23C U37C A67G U120A G138A,1.2
14,A30G G73U A114U,0.07
15,A52U A91G A126G,0.92
16,A98G A110G U132C,0.05
17,A59G A63G U70C A96G,0.34
18,A22G A98G G115U,0.06
19,A56G G73C A110U,0.05
20,A11G A54G A116G,0.4
21,A51C G119U A126G,1.13
22,U2G A60U A78U U87C,0.49
23,A27G U97C A110G U130C,0.03
24,U37C U49C A118C,0.32

row,Variant,self-cleavage
1,A52G A64G U122A,0.57
2,U9A C17U U100C,1.48
3,U87A U103A A116G A117G A118U,0.13
4,A18U A33G A92G U97C U102C A140G,1.58
5,U43C A64G A68G A82U A96U,0.12
6,U39G A63C A78G U100C,0.26
7,A5G A13U A23G,1.09
8,A33G U39C U87C U103C,0.43
9,U39C C42U A111U,0.13
10,A54G A91G U139C,1.03
11,U19C A68G A90C A135G,0.92
12,U37C A68G A92G A117G,1.08
13,U38C A92G C105G,0.03
14,U2C A62U U120C,1.46
15,A5G G7U A78G A89G,0.21
16,C46U A62G U122C,2.1
17,A55G A114G A126C,0.1
18,A47U A82G A91U A95G U100C,1.75
19,A11U U12C U108A,0.12
20,A24C A30G U43C U72C U131C,0.24
21,A30G U37C A52G A67G,0.83
22,U9C U38C G99U U102C U127A,2.98
23,A54G A116U A118G,0.06
24,A68G A78G A126U,0.13

row,Variant,self-cleavage
1,A94U U120C A125U,1.41
2,A36U U43C A118G,1.78
3,A118G U130G U132C,0.41
4,A30G U38C A47G U49C A51G,1.01
5,A24G A56G U122C U131C,0.17
6,A5U A68G A91G A125G,0.86
7,U37C A51U A78U A111G,0.09
8,A18G A78G A82U,0.19
9,U57G U103C A116G,0.04
10,U2A A69G U103C A110U,0.93
11,C40U A60G A78G A91G A92G,0.19
12,A11G A51C U139C,0.52
13,U9C A98G U122C,0.23
14,A23G A33U A96G,1.36
15,A11G A78U U102C U127A,0.88
16,U38C A82G U102A,0.49
17,A55G A68G U72C,0.17
18,C45U U49A A52G A68G A78U C112U,0.02
19,U2C U100A A111U,0.05
20,U9G A18U C40U U43G A69G G119A,1.36
21,G44A A47G A52G A110G,0.17
22,A47G A59G G65A,0.91
23,U2C U49C A66G,0.06
